In all, about 33,000 sequences were measured (“E-score (dimensionless, -0.5 to 0.5)”: median about -0.058, highest 2% from about 0.35 on). The list shows a part of the results.
system: MvaT; assay: PBM 8-mer E-score (mean of HK and ME arrays) (E-score (dimensionless, -0.5 to 0.5)); higher = stronger relative binding preference; most listed sequences are background and not binding sites
In short: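 Full-length P. aeruginosa MvaT, with glutathione S-transferase fused to its N-terminus (cloned into pTH6838 by isothermal assembly), was tested by protein binding microarray using a previously described protocol. Two universal double-stranded 60-mer arrays (ME and HK) were used, each with a constant 25-mer primer region and a variable 35-mer region covering all 8-mers. The rank-based 8-mer E-score (-0.5 to 0.5) is the mean of the two arrays, parsed with a custom Python script.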

Sequence | PBM 8-mer E-score
AACTCGTA | 0.22
CGCTCTGC | -0.244
AAGAAGTC | 0.0453
ATTTTTCA | 0.145
AGAAGAGA | -0.073
ATGCTTGG | -0.132
CTACGAGA | -0.0941
ATCGATCC | 0.02
CATGCGCG | -0.224
TAACCGCA | 0.163
CGATCAAA | 0.0625
AGGAATTA | 0.226
CCTCCCCG | -0.317
CAGTTTCG | 0.0668
CTTCTGTA | 0.0958
GGGTTAAA | 0.221
AATGGAGC | -0.0684
GGTCCGAC | -0.163
AACTTCCC | 0.065
GCGACCGA | -0.173
AGATGAGA | 0.0308
AATCTAAA | 0.263
CTGATATC | 0.0923
AACGATGG | 0.0077
ACAGAACT | 0.136

Sequence | PBM 8-mer E-score
ACCCTGAT | -0.12
ACACAGTA | 0.0817
ATTTGACC | -0.0256
AAGTCTAG | -0.132
ACCATGAC | -0.124
GCGGAAAA | 0.161
GCAAGGAC | 0.0233
GCACCTGA | -0.165
AAGACAAC | 0.0417
CAGAGAGG | -0.235
GGAGTGAC | -0.185
CCTTCTCG | -0.235
GTGCACGA | -0.072
ATGATATG | 0.199
CACCGCTC | -0.138
GTCGAACA | -0.0589
ACTTTGAA | 0.163
CAGTAGTC | -0.116
ACTTAGCG | 0.0909
AGGCAAAC | -0.122
ATCACCAC | -0.0324
ATAAGGGC | 0.0188
GTCTCCCA | -0.167
ATTTGATG | 0.0779
ACGCTCTG | -0.221

Sequence | PBM 8-mer E-score
CCACCATA | 0.0561
ACATTCAC | 0.139
ACGTTAAC | 0.232
CGAAGATA | 0.134
CCTGCGCG | -0.165
CCGCCTCA | -0.183
AGAAGGGG | -0.234
CATCCTTA | 0.0793
GAAATCTC | -0.0666
GGCCGTCA | -0.173
ATTGACTA | 0.0534
CCAGGGAG | -0.283
CTCTTGGA | -0.282
CTGTTCCA | -0.0683
AAGCAGGC | -0.181
TCTGCACA | -0.0844
GACTGTTA | 0.0473
CCGAGTTA | 0.0262
ATCATCCG | -0.0986
TCGGCACA | -0.0747
ACCCGGCT | -0.145
GACGGCCC | -0.128
AGGAGTCC | -0.147
ATGGGTGC | -0.0271
CTTCGTGA | -0.0646

Sequence | PBM 8-mer E-score
CTGCACAA | 0.00355
CAACCGAC | 0.021
AGCACACA | -0.0533
AGGATCTC | -0.253
AAACACTC | 0.0972
CTTAGATC | -0.0588
CTGAACAA | -0.00661
CGAAATCG | 0.0631
GATGGTCA | -0.203
AAATCAGG | 0.0541
CCAGAGGA | -0.226
ACACGAGG | -0.0897
CCGAACGC | -0.072
AAGGGTAA | 0.109
GAATGGAA | -0.055
GGATCGGA | -0.242
CCTCCGAG | -0.338
TGCAAGAA | 0.115
GGAGCTGA | -0.335
ACTGCTCC | -0.0607
AGTCGGGC | -0.148
AAGTCACC | -0.149
CTAAGCTA | 0.0924
AACGCGTG | -0.0417
CTTCCTCC | -0.298

Sequence | PBM 8-mer E-score
AGGTTCAG | -0.158
CTTAAAAA | 0.163
ACGTCGGA | 0.0335
ACAGCTGA | -0.0814
AGAATTAT | 0.315
ACCAACCC | -0.163
CGCGCCGC | -0.183
CATGGACG | -0.283
CTGTGCCA | -0.201
CGCTCCCG | -0.276
CGGCTAAG | -0.136
AAAGCTAG | -0.143
CTCGAGGC | -0.14
CCGGCACG | -0.22
GGGTCCCA | -0.171
CCCCGCAG | -0.0895
CCTCTATA | -0.124
ACGAAAAA | 0.211
ATTGTCGC | 0.0052
ATATGAGG | -0.0136
CGCAGCGA | -0.223
CGCGCGTC | -0.217
CGCAGGCC | -0.293
CGAAGCCC | -0.284
GGCCACAA | -0.0863

Sequence | PBM 8-mer E-score
AAGCAGTG | -0.191
GAAACGGA | -0.164
CAATATAA | 0.404
TGCGAGCA | -0.192
CGTACGGC | -0.13
ATATAACG | 0.406
CACGTCAC | 0.0371
GGGATCCA | -0.223
CGTGTAGA | -0.148
AGGTGACG | -0.124
AAGAGTCG | 0.0788
CCCGAGAA | -0.164
ATTGAACA | 0.161
ATACCCAG | 0.103
GGTGACTA | -0.0881
CCTGATGC | -0.163
AACCCATT | 0.0496
ACGGCTAG | -0.0966
CGGCCAGA | -0.256
ACTGTATG | 0.0446
AGACCATG | -0.252
CTTTCGAA | 0.0825
ATAGGTAC | -0.0108
ACCTAGGG | -0.245
AGAACTTA | 0.256

Sequence | PBM 8-mer E-score
GTTAGAGA | -0.0617
AATTCCCA | 0.105
CTCTACTC | -0.0821
AAACTAGA | 0.145
AGGCTAGC | -0.267
AGTTCTAG | 0.186
CCCTTTCG | -0.409
AACTTCAC | 0.0764
AAAGACAC | -0.0843
ATACTACC | 0.189
CAGCCAAG | -0.106
AACTGGGG | -0.149
ATGTAACG | 0.161
GATGAACC | -0.124
ATAGTCCG | 0.0122
GATGGGCC | -0.178
CGAACAAC | 0.0607
ATAATACA | 0.407
CGTCAGCC | -0.34
AGTCATAG | -0.0787
TAAGAGAA | 0.202
TGAACACA | 0.133
